In PubChem BioAssay AID889 (National Center for Advancing Translational Sciences (NCATS), 2007):
Among all 75,000 compounds or so, about 15 (0.02%) were called active. The shares of active, inactive and inconclusive entries below differ from those in the screen. Calls follow the shape of the dose curve; as a rule, active = well fitted inhibition curve with a large enough effect in the main read-out, with a control signal flat (not every such curve was filed as active); inconclusive = small, poorly fitted or top-dose-only effect, or a change in a side signal; inactive = flat fitted curve, though single readings scatter. Where the call is inconclusive, the potency comes from a doubtful curve fit. A note “side channel” means that the fit belongs to a control or component signal, not to the main read-out.

What follows are compounds tested against Caspase-7 (Homo sapiens) (UniProt P55210) (assay: qHTS Assay for Allosteric/Competitive Inhibitors of Caspase-7). Conditions: recombinant caspase-7, Ac-DEVD-AFC fluorescence rate; activity change, negative = inhibition: at 57.5 µM (top of the series) unless noted.
For activity change, negative = inhibition in this document: % of control where 0% means no effect.
Potency is read from the fitted curve at half-maximal effect; tags tell the direction and shape of the fitted curve or compound fluorescence and quenching.

Chain of UniProt P55210 (P55210 whole entry, looked up): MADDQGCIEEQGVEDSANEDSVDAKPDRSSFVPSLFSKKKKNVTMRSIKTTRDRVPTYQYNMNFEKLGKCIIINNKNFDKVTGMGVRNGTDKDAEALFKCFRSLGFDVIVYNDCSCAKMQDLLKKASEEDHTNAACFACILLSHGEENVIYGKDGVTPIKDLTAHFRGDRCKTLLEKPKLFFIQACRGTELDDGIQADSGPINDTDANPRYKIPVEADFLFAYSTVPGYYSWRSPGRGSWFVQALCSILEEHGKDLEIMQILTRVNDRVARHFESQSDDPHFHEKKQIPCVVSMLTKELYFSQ

Potency, inactive:
CCN(CC)CC(=O)c1ccc(-c2ccccc2)cc1
Nc1nc(-c2ccco2)cs1
COc1ccc2[nH]c3c(c2c1)CCn1c-3nc2ccccc2c1=O
CCCC[C@@H]1C[C@H]1C(NC(=O)c1ccccc1)c1ccc(C(F)(F)F)cc1 (some centres not stated)
COc1cc2nc(N3CCN(C(=O)[C@@H]4COc5ccccc5O4)CC3)nc(N)c2cc1OC
COc1ccccc1N1C(=O)CC(Nc2ccc(N3CCOCC3)cc2)C1=O (configuration not stated)
O=C1c2ccccc2C(=O)N1Cc1nc2ccccc2o1
c1ccc(-c2ccc(N3CC[C@@]4(CCCNC4)C3)cc2)cc1
O=C(Nc1ccc(F)cc1)N(Cc1ccco1)Cc1cc2cc3c(cc2[nH]c1=O)OCO3
CCc1ccc2oc(-c3cc(N=Cc4cccc(OC)c4O)ccc3O)nc2c1
O=C(c1cccs1)c1no[n+]([O-])c1C(=O)c1cccs1
O=C(CSc1nc2ccccc2s1)N1CCN(C(=O)c2ccco2)CC1
COc1ccc(N(CC(O)Cn2nnc3ccccc32)S(=O)(=O)c2ccc(C)cc2)cc1 (configuration not stated)
CC(C)CCNC(=O)C(c1ccco1)N(C(=O)Cn1nnc2ccccc21)c1ccc2c(c1)OCO2 (configuration not stated)
CCOc1cccc(C(=O)NC2CCCCC2)c1
O=c1[nH]c(SCc2ccc(Cl)cc2)nc2c1CCC2
CC(C)=CC1C(CO)C1(C)C (configuration not stated)
c1ccc(Cc2nn3c(COc4ccccc4)nnc3s2)cc1
COCCNc1nc(C)nc2c1nc(-c1ccccc1)n2CC1CCN(C)CC1
NC(=O)c1nsc(C(=O)N(CC(=O)NCc2ccc3c(c2)OCO3)C2CCCCC2)c1N
CCCC(c1nnnn1CCOC)N1CCN(c2cccc(OC)c2)CC1 (configuration not stated)

Potency, inconclusive:
O=C1CN(/N=C/c2ccc([N+](=O)[O-])o2)C(=O)N1 31.6 µM [inhibitor, single point]
CC(C)Cn1nc(NC(=O)C2CCCO2)c2cc3ccccc3nc21 (configuration not stated) 15.8 µM [fluorescent, side channel, partial curve]
Cc1ccc(Cn2c(C)nc3c(c2=O)c2nc4ccccc4nc2n3Cc2ccco2)cc1 25.1 µM [inhibitor, single point]
CSc1nnc2c(n1)OC(C)N(C(=O)c1ccccc1)c1ccccc1-2 (configuration not stated) 25.1 µM [fluorescent, single point]
CC1=C(C#N)C(C)C2=C(CC(C)(C)CC2=O)N1 (configuration not stated) 15.8 µM [fluorescent, side channel, partial curve]
COc1cccc(Nc2ncc3nc(C)c(=O)n(CCc4ccccc4)c3n2)c1 20 µM [inhibitor, partial curve]
O=C(NCc1ccco1)c1cccn2c(=O)c3cc(Br)ccc3nc12 25.1 µM [inhibitor, single point]
CCCN1CC=C2C(C#N)=C(N)C(C#N)(C#N)C(c3cc(OC)ccc3OC)C2C1 (configuration not stated) 25.1 µM [fluorescent, partial curve]
CN1CCN(c2ncc3nc(-c4cc(F)cc(F)c4)c(=O)n(CCc4ccccc4)c3n2)CC1 7.94 µM [fluorescent, side channel, partial curve]
CCNc1ncc2nc(-c3ccc(Cl)cc3)c(=O)n(Cc3ccc(F)cc3)c2n1 1.26 µM [fluorescent, full curve]
O=C(O)Cn1c2c(c3ccccc31)CCCC2 31.6 µM [fluorescent, side channel, single point]
Cc1occc1-c1nnc(SCC(=O)c2cc3ccccc3oc2=O)o1 12.6 µM [inhibitor, partial curve]
CCNc1ncc2nc(-c3cn(C)c4ccccc34)c(=O)n(Cc3ccc(F)cc3)c2n1 1.26 µM [inhibitor, full curve]
COc1ccc(-c2oc3ccc(C)cc3c(=O)c2O)cc1OC 7.94 µM [fluorescent, side channel, partial curve]
CCOC(=O)c1cc(-c2ccc3c(c2)OCCO3)nc2c1c(C)nn2CCC#N 25.1 µM [fluorescent, partial curve]
COc1cccc(Cn2c(=O)c(-c3ccc(Cl)cc3)nc3cnc(N(C)C)nc32)c1 0.631 µM [fluorescent, side channel, full curve]
c1ccn2c(c1)nc1c2nc2ccccn21 10 µM [fluorescent, side channel, partial curve]
COc1ccc(C2C=C(c3ccc(Br)s3)Nc3ncnn32)cc1OC (configuration not stated) 25.1 µM [fluorescent, side channel, partial curve]
N#CCCn1c(=O)c(-c2ccccc2)nc2cnc(Nc3ccccc3)nc21 15.8 µM [fluorescent, side channel, partial curve]
N#CCCn1c(=O)c(-c2cccs2)nc2cnc(N3CCNCC3)nc21 3.98 µM [fluorescent, side channel, partial curve]
N#CC1=C(N)Oc2cc(O)ccc2C1C1CCCCC1 (configuration not stated) 25.1 µM [inhibitor, partial curve]
Cc1cc(C)n2nc3nc4c(cc3c2n1)CCCC4 25.1 µM [fluorescent, single point]
Cc1ccc(S(=O)(=O)Nc2ccccc2CNc2c(C)n(C)n(-c3ccccc3)c2=O)cc1 31.6 µM [inhibitor, single point]
O=c1c(-c2ccc(Cl)cc2)nc2cnc(N3CCNCC3)nc2n1Cc1ccc(F)cc1 7.94 µM [fluorescent, side channel, partial curve]
O=c1c(-c2ccc(Cl)cc2)nc2cnc(N3CCNCC3)nc2n1-c1ccccc1 3.98 µM [fluorescent, side channel, partial curve]
Cc1oc(C)c2c(=O)ccc3c(c12)OC(N)=C(C#N)C3c1ccccc1Cl (configuration not stated) 25.1 µM [fluorescent, side channel, single point]
CN(C)c1ccc(C2C=C(c3ccc(Cl)cc3OC(F)F)Nc3ncnn32)cc1 (configuration not stated) 25.1 µM [fluorescent, partial curve]
CCNc1ncc2nc(-c3ccccc3)c(=O)n(-c3ccc(OC)cc3)c2n1 10 µM [fluorescent, partial curve]
N#CC(c1nc2ccccc2nc1N1CCCC1)S(=O)(=O)c1cccs1 (configuration not stated) 25.1 µM [inhibitor, single point]
O=c1c(-c2cccs2)nc2cncnc2n1-c1ccccc1 15.8 µM [fluorescent, partial curve]
COCCn1c(=O)c(-c2ccccc2)nc2cnc(Nc3ccccc3)nc21 15.8 µM [fluorescent, partial curve]
COCCn1c(=O)c(-c2cccc(C#N)c2)nc2cnc(N3CCN(C)CC3)nc21 6.31 µM [fluorescent, side channel, partial curve]
Cc1cc(N=Cc2cc(Br)ccc2O)no1 12.6 µM [fluorescent, side channel, partial curve]
Cc1ccc(C2NC(=O)c3c(sc4c3CCN(C)C4)N2)o1 (configuration not stated) 12.6 µM [fluorescent, partial curve]
O=C(O)c1cccn2c(=O)c3ccccc3nc12 25.1 µM [inhibitor, single point]
CN(C)c1ncc2nc(CCc3ccccc3)c(=O)n(C[C@H]3CCCO3)c2n1 25.1 µM [fluorescent, side channel, partial curve]
COc1cccc(Cn2c(=O)c(-c3cc(F)cc(F)c3)nc3cnc(N4CCN(C)CC4)nc32)c1 15.8 µM [fluorescent, partial curve]
O=C(c1ccc(F)cc1)c1ccc(N2CCCC2)cc1 39.8 µM [inhibitor, single point]
C=CCn1c(=S)[nH]c2ccc(Br)cc2c1=O 10 µM [fluorescent, partial curve]
COc1ccc2c3c([nH]c2c1)[C@@H]1C[C@@H]2[C@@H](C[C@H](O)[C@H](OC)[C@H]2C(=O)O)CN1CC3 12.6 µM [fluorescent, partial curve]
CCCCn1c(=NC(=O)c2ccco2)c(C(=O)OCC)cc2c(=O)n3ccccc3nc21 12.6 µM [fluorescent, side channel, partial curve]
COC(=O)c1cc2nc(-c3ccc(OC)cc3)cc(C(F)(F)F)n2n1 3.98 µM [fluorescent, side channel, partial curve]
O=c1c(-c2ccccc2)nc2cnc(Oc3ccccc3)nc2n1C[C@H]1CCCO1 31.6 µM [fluorescent, single point]
N#Cc1c(NCCO)nc(NCc2ccccc2)c2c1CCN(Cc1ccccc1)C2 12.6 µM [fluorescent, side channel, partial curve]

Activity change, negative = inhibition, inactive:
O=C(O)CCNc1ncnc2nc[nH]c12 -0.808% [at 11.5 µM]
O=C(O)CCC(=O)c1ccc[nH]1 2.21% [at 11.5 µM]
